B1: GBRAP_125_2994 (protein)
chain: SEEEVLENLRLVLRALGFDDEDVEEAVRLAREHGIRGTLYAALLALGYEELADLVEKLSEEETREALRRVAEELKKNPDLTPEEVKALLLEVLEKILAER
B2: GBRAP_106_2557 (protein)
chain: SRAARAEALLAEARAEAEAELAALDAWLEKHKSELSPEEIEAIKTYAGKAAVGRLLRRMVEAGLISPETARAIEREVLARAGLTPEELLALAEELVRAAV
B3: GBRAP_160_3988 (protein)
chain: EEEKKKLLKEIEEIFKETYELASGEDPENRLTVVRVHMGEILLLAEESGILSEESIEKIDEILDELVEKVAANPDMTDEELKALLEEALKKIKEIIEAEK
B4: GBRAP_184_5266 (protein)
chain: KVKEYEIEASNPEEIKEKLEKIAEEVKNTKADLIILAKIENPTPEKIKTLMEKLGEIKKAGYASSITVGIESELSEEVIDLAYELADKYGIKVTVALSEE
B5: GBRAP_26_5490 (protein)
chain: FEEEILKELREEIRKILADEDPTLRAAVIAAAEDLLLEAGEEIEKNKNDEKKIEEAKKEALEEMEKDLADFGLSEEKRAAVVEALKKALEKLEKEVKKKS
B6: GBRAP_160_4353 (protein)
chain: SETVERLIEKIREVTEEVIEAADELSVEEVKIIAAGEFGAVFMEAAEDERISDEMEDVILEGRDKVLEFLEENENASVEEIKKGIREITEETIEKLKEIA
B7: GBRAP_52_5910 (protein)
chain: MRERLRKLAEEMLKLVKAGKLEEARELARKLARELSDEELELFIEEVEKLVLEAPKEELPYFWKLAEIVAEELEREGRDEVLADLLLARTAAAIYKVEQK
B8: GBRAP_160_4823 (protein)
chain: SETVERWKKLIDERAAETIALVKGQTAEERAAIAAVEFGQLILELSEDPNFTDELEDEVAAIGDALVAEIAANPDLTDEELTALIEKAAAEIKAAIEKAF
B9: GBRAP_160_4686 (protein)
chain: SSKVEKAKKFIEEEFKEVVEYHEEMTKEELAALVRVAFGEIILELEELGLLTDELGKLIEEKEKEIVDYILKNPNITKEELEKKLEEAKKEIVKKLEEIS
B10: GBRAP_128_3231 (protein)
chain: MSPELRAKVDELIETIITGDVEETRAATRELVALMGEVSLEEAEEIAERLIAAIPKLTAEKLDAVADALRENAGTLSPEKAALAYEVEIEALEQAEELEE
B11: GBRAP_128_3403 (protein)
chain: SEEEKVAEAERLIEAIVAADVETARRLARELMELFGTLSLEAQERVAEAVEAALPRLTAEKLDVLADVLREQRPRFTPEKQAILADWEVAALNAAEEKEE
B12: GBRAP_125_2986 (protein)
chain: EEEELLEDLREIFKALGLSEEDAEEAVKLAREFSLKQTLYALMAALGAEEVADAVAKLTEEQAKEVVKEASEYIKKNPNITPEEVVELLLELAKKQLAKA
B13: GBRAP_78_6600 (protein)
chain: EVEELIDKALEKLNEASRIAKKLDPETQQEVLDKLVDAASDLVESEEPEGRLEHLKEALKHVKEALKIVEKSDSESAEELKKVLEEAKKLLEEAIKLLKE
B14: GBRAP_128_3154 (protein)
chain: RVEEVRERTRELLERIAEGPLEEVPALARELADLIREADEEAREAILEVFEELVPKLSPEKLDVVADVLREAMPELDPLGREVAAGMIVLADNERLEQEE
B15: GBRAP_11_2856 (protein)
chain: KKEKLEEIAELAEEAIKLLEKLLEEGVDNEELRKEIREKLEELLELVKKYLDEADVKLAEDALEDFEESLEDPENAVQHVQNALAHLRVLLGNVLLRIDE
B16: GBRAP_11_2644 (protein)
chain: KKEKLEKAAKLAKEAAEAVKELIEKGVDNKELQEKAEKLLEELKKLVEKELSEAHKTDVEVALELWEEFKKDKENKLEYAEQLLAALRVLEGNFLLEADE
B17: GBRAP_128_3492 (protein)
chain: SMEEAVARTRELMRAIGEADPEEARRLTRELVALMASVDPETAEAMADEAIELLPELSAEALEVLADTLAELRPSLDPYTANLVADIQVEALNEREELEE
B18: GBRAP_52_6175 (protein)
chain: MEERAKAMADAILAAIKAGKKEEVKALIEKAAKEFNDEEIELMWDHIAAAVPGLSPADQERVVDAAIEAEDIFIAAGHDENLASYNEARVAGAAYAALQA
B19: GBRAP_160_4726 (protein)
chain: SERIREFVERFEERFLETIEATEDESKEEQAAMFRGTAGEILMEALEEPFLSDEMEDVVAEELDALVAELEANWDASKEEKKAIVREHMERLRERLLALA

Whole data set: some 4,500 sequences, median “median log2 fold change of GCK-ALFA target abundance (FLAG IP / Myc IP barcode read proportion)” near 0.078, cut for the lowest 2% near -0.6. Some of the results follow.

Chain of GABARAP, O95166 (O95166 whole entry, the tested form may be a part): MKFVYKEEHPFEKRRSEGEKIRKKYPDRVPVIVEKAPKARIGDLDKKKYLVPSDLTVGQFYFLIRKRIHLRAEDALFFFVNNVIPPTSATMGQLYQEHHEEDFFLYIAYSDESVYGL

The experiment concerns the target GABARAP, O95166. Kind of experiment: median log2 fold change of GCK-ALFA target abundance (FLAG IP / Myc IP barcode read proportion) (log2 ratio); each designed protein is fused to an ALFA-tag nanobody in HEK293 cells to bring the named protein to FLAG-tagged glucokinase (GCK); Myc marks an untargeted standard; higher = target protein stabilised (more abundant). The settings on record: target protein: 3xFLAG-MCP-GCK-ALFA reporter; HEK293 landing pad (RPLP). The method in brief: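 Binders fused to an ALFA nanobody were recombined as a library into HEK293 landing-pad cells, which were induced with 2 μg mL^−1 doxycycline and then transfected to express a FLAG-tagged target and a Myc-tagged standard. After 48 h, circular RNA barcodes recovered by anti-FLAG and anti-Myc immunoprecipitation of lysates were reverse transcribed, amplified and sequenced. Each binder's target abundance is the median log2 ratio of FLAG to Myc barcode read proportions, from barcodes present at ≥10^−7 in both replicates, binders carrying ≥3 barcodes per replicate, a 10^−6 pseudocount and pooled replicates.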
Regarding B1, the “median log2 fold change” value came to 0.0827.

On to B2, for which the “median log2 fold change” value is -0.49.

As to B3, the “median log2 fold change” value is -0.199.

Regarding B4, the “median log2 fold change” value turned out to be 0.225.

As to B5, the “median log2 fold change” value turned out to be 0.347.

As for B6, the “median log2 fold change” value came to 0.014.

Consider B7, for which the “median log2 fold change” value was determined as 0.121.

As for B8, the “median log2 fold change” value was 0.0772.

On to B9, for which the “median log2 fold change” value is -0.148.

On to B10, for which the “median log2 fold change” value came to 0.146.

B11: the “median log2 fold change” value turned out to be 0.000634.

As to B12, the “median log2 fold change” value was -0.643.

As to B13, the “median log2 fold change” value was 0.474.

On to B14, for which the “median log2 fold change” value is 0.23.

Turning to B15, the “median log2 fold change” value was found to be 0.113.

As to B16, the “median log2 fold change” value was 0.459.

Take B17: the “median log2 fold change” value was -0.0763.

For B18, the “median log2 fold change” value came out at 0.0494.

For B19, the “median log2 fold change” value was 0.0951.

The values above are taken from the supplement of paper PMC12632987.
